Data reported in patent publication US20120253017A1 (published 2012).

B1: DMS5071 (humanized 5-51 VH/4-1 Vk MLC mAb-DOM28m-007) (bispecific antibody, human IgG1, kappa)
heavy: EVQLVQSGAEVKKPGESLKISCKGSGYSFTTYWIHWVRQMPGKGLEWMGAIYPGDGDTRYTQNFKDQVTISADKSISTAYLQWSSLKASDTAMYYCAREGTPPFTTATFAMAYWGQGTLVTVSS[in this place human IgG1 constant region]STGEVQLLESGGGLVQPGGSLRLSCAASGFTFSNYAMGWVRQAPGKGLEWVSSISSSGFATYYADSVKGRFTISRDNSKNTLYLQMNSLRAEDTAVYYCAKSESRTFKAFDYWGQGTLVTVSS
light: DIVMTQSPDSLAVSLGERATINCKSSQSLLYSRTRKNYLAWYQQKPGQPPKLLIYWASTRQSGVPDRFSGSGSGTDFTLTISSLQAEDVAVYYCKQSYNLFTFGQGTKLEIKRTVAAPSVFIFPPSDEQLKSGTASVVCLLNNFYPREAKVQWKVDNALQSGNSQESVTEQDSKDSTYSLSSTLTLSKADYEKHKVYACEVTHQGLSSPVTKSFNRGEC
notes: human IgG1, dAb at heavy chain C-terminus; also called DM5071
B2: DMS5073 (humanized 5-51 VH/4-1 Vk MLC mAb-DOM28m-023) (bispecific antibody, human IgG1, kappa)
heavy: EVQLVQSGAEVKKPGESLKISCKGSGYSFTTYWIHWVRQMPGKGLEWMGAIYPGDGDTRYTQNFKDQVTISADKSISTAYLQWSSLKASDTAMYYCAREGTPPFTTATFAMAYWGQGTLVTVSS[in this place human IgG1 constant region]STGEVRLLESGGGLVQPGGSLRLSCAASGFTFRDYVMVWVRQAPGKGLEWVSAIAPTGGYTYYADSVKGRFTISRDNSKNTLYLQMNSLRAEDTAVYYCAKSLRTWLSEDLPFDYWGQGTLVTVSS
light: B1 light
notes: human IgG1, dAb at heavy chain C-terminus
B3: DMS5072 (humanized 5-51 VH/4-1 Vk MLC mAb-DOM28m-017) (bispecific antibody, human IgG1, kappa)
heavy: EVQLVQSGAEVKKPGESLKISCKGSGYSFTTYWIHWVRQMPGKGLEWMGAIYPGDGDTRYTQNFKDQVTISADKSISTAYLQWSSLKASDTAMYYCAREGTPPFTTATFAMAYWGQGTLVTVSS[in this place human IgG1 constant region]STGEVQLLESGGGLVQPGGSLRLSCAASGFTFEPYSMGWVRQAPGKGLEWVSQISASGDVTYYADSVKGRFTISRDNSKNTLYLQMNSLRAEDTAVYYCAKWRWRDSFENFDYWGQGTLVTVSS
light: B1 light
notes: as for B2
B4: DMS5076 (humanized 5-51 VH/4-1 Vk MLC mAb-DOM28m-109) (bispecific antibody, human IgG1, kappa)
heavy: EVQLVQSGAEVKKPGESLKISCKGSGYSFTTYWIHWVRQMPGKGLEWMGAIYPGDGDTRYTQNFKDQVTISADKSISTAYLQWSSLKASDTAMYYCAREGTPPFTTATFAMAYWGQGTLVTVSS[in this place human IgG1 constant region]STGEVQLLESGGGLVQPGGSLRLSCAASGFTFSDYTMHWVRQAPGKGLEWVSRIDPMGIATYYADSVKGRFTISRDNSKNTLYLQMNSLRAEDTAVYYCAKDLRWATGFQQDFDYWGQGTLVTVS
light: B1 light
notes: as for B2
B5: DMS5074 (humanized 5-51 VH/4-1 Vk MLC mAb-DOM28m-104) (bispecific antibody, human IgG1, kappa)
heavy: EVQLVQSGAEVKKPGESLKISCKGSGYSFTTYWIHWVRQMPGKGLEWMGAIYPGDGDTRYTQNFKDQVTISADKSISTAYLQWSSLKASDTAMYYCAREGTPPFTTATFAMAYWGQGTLVTVSS[in this place human IgG1 constant region]STGEVQLLESGGGLVQPGGSLRLSCAASGFTFSHYNMCWVRQAPGKGLEWVSGISPNGSSTYYADSVKGRFTISRDNSKNTLYLQMNSLRAEDTAVYYCAKQCLGHTRVFDYWGQGTLVTVSS
light: B1 light
notes: as for B2
B6: DMS5077 (humanized 5-51 VH/4-1 Vk MLC mAb-DOM28m-112) (bispecific antibody, human IgG1, kappa)
heavy: EVQLVQSGAEVKKPGESLKISCKGSGYSFTTYWIHWVRQMPGKGLEWMGAIYPGDGDTRYTQNFKDQVTISADKSISTAYLQWSSLKASDTAMYYCAREGTPPFTTATFAMAYWGQGTLVTVSS[in this place human IgG1 constant region]STGEVQLLESGGGLVQPGGSLRLSCAASGFTFKVEDMGWVRQAPGKGLEWVSIIDSPGIGTYYADSVKGRFTISRDNSKNTLYLQMNSLRAEDTAVYYCAKWNFDSNQFDYWGQGTLVTVSS
light: B1 light
notes: as for B2
B7: DMS5102 (humanized 5-51 VH/4-1 Vk MLC mAb-DOM28h-94-11) (bispecific antibody, human IgG1, kappa)
heavy: EVQLVQSGAEVKKPGESLKISCKGSGYSFTTYWIHWVRQMPGKGLEWMGAIYPGDGDTRYTQNFKDQVTISADKSISTAYLQWSSLKASDTAMYYCAREGTPPFTTATFAMAYWGQGTLVTVSS[in this place human IgG1 constant region]STGEVQPLESGGGLVQPGGSLRLSCAVSGFTFFPYAMGWVRQAPGKGLEWVSFISGRGDTTYYADSVKGRFTISRDNSKNTLYLQMNSLRAEDTAVYYCAKTATSDLWNFDYRGQGTLVTVSS
light: B1 light
notes: as for B2
B8: DMS5075 (humanized 5-51 VH/4-1 Vk MLC mAb-DOM28m-107) (bispecific antibody, human IgG1, kappa)
heavy: EVQLVQSGAEVKKPGESLKISCKGSGYSFTTYWIHWVRQMPGKGLEWMGAIYPGDGDTRYTQNFKDQVTISADKSISTAYLQWSSLKASDTAMYYCAREGTPPFTTATFAMAYWGQGTLVTVSS[in this place human IgG1 constant region]STGEVQLLESGGGLVQPGGSLRLSCAASGFTFRHYDMAWVRQAPGKGLEWVSTIASTGARTYYADSVKGRFTISRDNSKNTLYLQMNSLRAEDTAVYYCAKASGYSTAPQFDYWGQGTLVTVSS
light: B1 light
notes: as for B2
B9: DMS5105 (humanized 5-51 VH/4-1 Vk MLC mAb-DOM28h-94-15) (bispecific antibody, human IgG1, kappa)
heavy: EVQLVQSGAEVKKPGESLKISCKGSGYSFTTYWIHWVRQMPGKGLEWMGAIYPGDGDTRYTQNFKDQVTISADKSISTAYLQWSSLKASDTAMYYCAREGTPPFTTATFAMAYWGQGTLVTVSS[in this place human IgG1 constant region]STGEVQPLESGGGLVQPGGSLRLSCAASGFTVFPYAMGWVRQAPGKGLEWVSFISGRGDTTYYADSVKGRFTISRDNSKNTLYLQMNSLRAEDTAVYYCAKTATSDLWNFDYRGQGTLVTVSS
light: B1 light
notes: as for B2
B10: DMS5103 (humanized 5-51 VH/4-1 Vk MLC mAb-DOM28h-94-13) (bispecific antibody, human IgG1, kappa)
heavy: EVQLVQSGAEVKKPGESLKISCKGSGYSFTTYWIHWVRQMPGKGLEWMGAIYPGDGDTRYTQNFKDQVTISADKSISTAYLQWSSLKASDTAMYYCAREGTPPFTTATFAMAYWGQGTLVTVSS[in this place human IgG1 constant region]STGEVQPLESGGGLVQPGGSLRLSCAVSGFTIFPYAMGWVRQAPGKGLEWVSFISGRGDTTYYADSVKGRFTISRDNSKNTLYLQMNSLRAEDTAVYYCAKTATSDLWNFDYRGQGTLVTVSS
light: B1 light
notes: as for B2
B11: DMS5104 (humanized 5-51 VH/4-1 Vk MLC mAb-DOM28h-94-14) (bispecific antibody, human IgG1, kappa)
heavy: EVQLVQSGAEVKKPGESLKISCKGSGYSFTTYWIHWVRQMPGKGLEWMGAIYPGDGDTRYTQNFKDQVTISADKSISTAYLQWSSLKASDTAMYYCAREGTPPFTTATFAMAYWGQGTLVTVSS[in this place human IgG1 constant region]STGEVQLLESGGGLVQPGGSLRLSCAVSGFTIFPYAMGWVRQAPGKGLEWVSFISGRGDTTYYADSVKGRFTISRDNSKNTLYLQMNSLRAEDTAVYYCAKTATSDLWNFDYWGQGTLVTVSS
light: B1 light
notes: as for B2
B12: DMS5078 (humanized 5-51 VH/4-1 Vk MLC mAb-DOM28h-094) (bispecific antibody, human IgG1, kappa)
heavy: EVQLVQSGAEVKKPGESLKISCKGSGYSFTTYWIHWVRQMPGKGLEWMGAIYPGDGDTRYTQNFKDQVTISADKSISTAYLQWSSLKASDTAMYYCAREGTPPFTTATFAMAYWGQGTLVTVSS[in this place human IgG1 constant region]STGEVQLLESGGGLVQPGGSLRLSCAASGFTFFPYAMGWVRQAPGKGLEWVSFISGRGDTTYYADSVKGRFTISRDNSKNTLYLQMNSLRAEDTAVYYCAKTATSDLWNFDYWGQGTLVTVSS
light: B1 light
notes: as for B2

Experiments:
[1] = biological target: Myosin Light Chain (on streptavidin chip; vMLC1-sulfotag); assay: BIAcore, bivalent model
rat cKIT ECD [2] = biological target: T1, rat cKIT ECD (rat, UniProt Q63116 25-526); assay: BIAcore, bivalent model
T1 construct: cloned into pDOM38, which provides a human IgG1 Fc; also called rcKIT; rckit; not shown: Human IgG1 Fc (and any linker) supplied by vector pDOM38

[3] = biological target: T2, human c-kit (recombinant, on BIAcore chip or beads) (human, UniProt P10721 partial chain); assay: BIAcore, bivalent model, bad fit
T2 construct: extracellular domain; also called hcKIT; biotinylated human c-kit

[4] = biological target: cKIT-H6 (His tagged), MSD assay; assay: MSD bridging assay, cKIT-H6 coated, vMLC1-sulfotag detection, 10% mouse serum
[5] = biological target: cKIT-H6 (His tagged), MSD assay; assay: MSD bridging assay, cKIT-H6 coated, vMLC1-sulfotag detection, top standard concentration
[6] = biological target: T2, human c-kit (recombinant, on BIAcore …); assay: BIAcore
[7] = biological target: T2, human c-kit (recombinant, on BIAcore …); assay: BIAcore, bivalent model
[8] = biological target: Myosin Light Chain (on streptavidin chip; vMLC1-sulfotag); assay: BIAcore
[9] = biological target: T2, human c-kit (recombinant, on BIAcore …); assay: BIAcore; remark: listed apart in the source
rat cKIT ECD [10] = biological target: T1, rat cKIT ECD; assay: BIAcore
[11] = biological target: Myosin Light Chain (on streptavidin chip; vMLC1-sulfotag); assay: BIAcore, bivalent model, bad fit

T1 sequence (Q63116 entry or part of it limits assumed, form in doubt): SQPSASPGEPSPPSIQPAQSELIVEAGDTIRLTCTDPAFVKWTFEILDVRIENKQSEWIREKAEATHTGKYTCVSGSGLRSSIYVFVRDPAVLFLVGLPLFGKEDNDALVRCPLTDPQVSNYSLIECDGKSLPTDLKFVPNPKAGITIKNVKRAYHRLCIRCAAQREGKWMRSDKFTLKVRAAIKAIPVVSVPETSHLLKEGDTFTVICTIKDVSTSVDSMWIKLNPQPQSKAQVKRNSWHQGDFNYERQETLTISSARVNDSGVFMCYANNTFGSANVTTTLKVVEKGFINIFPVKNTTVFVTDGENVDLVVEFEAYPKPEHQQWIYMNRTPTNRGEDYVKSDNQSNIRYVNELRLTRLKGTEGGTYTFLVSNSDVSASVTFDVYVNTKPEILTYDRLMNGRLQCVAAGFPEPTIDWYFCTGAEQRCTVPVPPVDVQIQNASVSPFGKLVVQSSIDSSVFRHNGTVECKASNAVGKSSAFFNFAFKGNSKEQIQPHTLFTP
T2 sequence (P10721 26-524): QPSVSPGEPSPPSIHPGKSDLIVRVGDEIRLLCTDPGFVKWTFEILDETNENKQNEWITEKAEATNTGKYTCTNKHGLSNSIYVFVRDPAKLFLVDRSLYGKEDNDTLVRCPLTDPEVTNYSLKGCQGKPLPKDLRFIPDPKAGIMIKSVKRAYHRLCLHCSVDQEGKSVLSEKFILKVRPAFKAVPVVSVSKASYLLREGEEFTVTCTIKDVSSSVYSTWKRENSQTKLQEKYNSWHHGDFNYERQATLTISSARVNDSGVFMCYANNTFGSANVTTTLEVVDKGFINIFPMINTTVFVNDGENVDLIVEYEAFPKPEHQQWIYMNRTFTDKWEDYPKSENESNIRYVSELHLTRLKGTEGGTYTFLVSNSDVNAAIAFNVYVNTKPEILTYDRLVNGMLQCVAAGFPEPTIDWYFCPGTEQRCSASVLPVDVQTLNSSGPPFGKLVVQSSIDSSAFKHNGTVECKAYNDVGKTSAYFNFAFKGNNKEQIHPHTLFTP
Sequence of Myosin Light Chain (on streptavidin chip; vMLC1-sulfotag) (chain, as listed by the source): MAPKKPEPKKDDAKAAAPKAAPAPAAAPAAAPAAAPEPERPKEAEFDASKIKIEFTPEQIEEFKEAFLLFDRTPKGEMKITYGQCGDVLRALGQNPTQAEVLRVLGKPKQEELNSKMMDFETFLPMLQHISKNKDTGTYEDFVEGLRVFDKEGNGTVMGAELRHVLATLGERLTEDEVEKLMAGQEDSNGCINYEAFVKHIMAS

Binder | Kd [1] | Kd (rat cKIT ECD [2]) | Kd [3] | S:N @ ULOQ [4] | s:N @ LLOQ [4] | Top counts [5] | binding result [6] | Kd [7] | Kd [8] | Kd [9] | Kd (rat cKIT ECD [10]) | Kd [11]
B1 | 13 nM | 5000 nM | 4000 nM | 811 | 1.8 | 67800 counts | – | – | – | – | – | –
B2 | 12 nM | – | – | 2.9 | 2 | 170 counts | no binding (tested: 1 uM) | – | – | – | – | –
B3 | 9 nM | 3000 nM | – | 362 | 1.5 | 741 counts | – | 8000 nM | – | – | – | –
B4 | 4 nM | 1500 nM | – | 1100 | 67.7 | 3340 counts | – | 4000 nM | – | – | – | –
B5 | 13 nM | – | – | 199 | 1.5 | 18200 counts | no binding (tested: 1 uM) | – | – | – | – | –
B6 | 8 nM | – | – | 12.8 | 12.8 | 1170 counts | no binding (tested: 1 uM) | – | – | – | – | –
B7 | – | – | – | 4320 | 29.6 | 300000 counts | – | – | 5 nM | 290 nM | 125 nM | –
B8 | – | – | – | 1380 | 3.8 | 100000 counts | no binding (tested: 1 uM) | – | – | – | – | 36 nM
B9 | – | – | – | 4730 | 31.4 | 300000 counts | – | – | 7 nM | 79 nM | 49 nM | –
B10 | – | – | – | 5430 | 41.9 | 300000 counts | – | – | 4 nM | 74 nM | 30 nM | –
B11 | – | – | – | 4490 | 42.3 | 200000 counts | – | – | 5 nM | 1000 nM | 5000 nM | –
B12 | 10 nM | – | 1000 nM | 958 | 5.8 | 100000 counts | – | – | – | – | – | –
